Data reported in the supplement of paper PMC11880418.
Structures can show the parent of a compound that is named as a salt. Some of the results follow. The data scatter; read single values as rough.

System: MKN45
Experiment: ALDHbr (CSC) cell proportion score relative to DMSO vehicle (ratio to DMSO); breast (SUM159) / gastric (MKN45) / pancreatic (PANC1) / colon cancer lines; ALDHbr cells have high ALDH activity and are rich in cancer stem cells (CSC); higher = more CSC (ALDHbr) cells remaining
Conditions: 10 µM; 72 h
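Note: High-content imaging of ALDEFLUOR-stained cells with Hoechst-labelled nuclei in 384-well plates, triplicate wells, scored as Z-score against 0.1% DMSO vehicle, negative meaning fewer ALDHbr cells.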

SMILES	ALDHbr
CC(C)(CO)C(O)C(=O)NCCCO (stereo not drawn) [Panthenol (D)]	1.02
C=C1c2cccc(O)c2C(O)=C2C(=O)[C@]3(O)C(O)=C(C(N)=O)C(=O)[C@@H](N(C)C)[C@@H]3[C@@H](O)[C@H]12 [Methacycline hydrochloride]	1.28
C[C@H]1NC(=O)NC1=O [Methylhydantoin-5-(D)]	0.95
C=CC1=C(C(=O)O)N2C(=O)[C@@H](NC(=O)/C(=N\OCC(=O)O)c3csc(N)n3)[C@H]2SC1 [Cefixime]	1.23
CN(C)CCc1c[nH]c2ccc(C[C@H]3COC(=O)N3)cc12 [Zolmitriptan]	1.02
CC(C)CN(C[C@@H](O)[C@H](Cc1ccccc1)NC(=O)O[C@H]1CCOC1)S(=O)(=O)c1ccc(N)cc1 [Amprenavir]	0.966
O=C(N/N=C/c1ccc([N+](=O)[O-])o1)c1ccc(O)cc1 [Nifuroxazide]	0
CC1=C(/C=C/C(C)=C/C=C/C(C)=C/C(=O)O)C(C)(C)CCC1 [Retinoic acid]	0.875
CN(C)CCCN1c2ccccc2CCc2ccccc21 [Imipramine hydrochloride]	1.04
CCCCOc1cc(C(=O)NCCN(CC)CC)c2ccccc2n1 [Dibucaine]	1.25
CCCCCCCN(CC)CCCC(O)c1ccc(NS(C)(=O)=O)cc1 (stereo not drawn) [Ibutilide fumarate]	0.953
CC(C)NCC(O)c1cc(O)cc(O)c1 (stereo not drawn) [Metaproterenol sulfate, orciprenaline sulfate]	0.963
CCCC1C(=O)N2C(N(C)C)=Nc3ccc(C)cc3N2C1=O (stereo not drawn) [Azapropazone]	0.706
N=C(N=C(N)N)N1CCOCC1 [Moroxidine hydrochloride]	1.06
CC(C)NC[C@H](O)COc1cccc2ccccc12 [(S)-propranolol hydrochloride]	1.29
Cc1cccc(CN2CCN(C(c3ccccc3)c3ccc(Cl)cc3)CC2)c1 (stereo not drawn) [Meclozine dihydrochloride]	0.418
CCN(CC)CCNC(C(=O)OCCC(C)C)c1ccccc1 (stereo not drawn) [Camylofine chlorhydrate]	0.938

SMILES	ALDHbr
C[C@]12C=CC(=O)C=C1CC[C@H]1[C@@H]3C[C@@H](O)[C@](O)(C(=O)CO)[C@@]3(C)C[C@H](O)[C@@]12F [Triamcinolone]	0.991
OC(CCCN1CCCCC1)(c1ccccc1)c1ccccc1 [Diphenidol hydrochloride]	1
CCN(CC)C(=S)SSC(=S)N(CC)CC [Disulfiram]	1.44
CC(=O)OCC1=C(C(=O)O)N2C(=O)[C@@H](NC(=O)Cc3cccs3)[C@H]2SC1 [Cephalothin sodium salt]	1.08
CN(C)CCOC(c1ccccc1)c1ccccc1.Cn1c(=O)c2[nH]c(Cl)nc2n(C)c1=O [Dimenhydrinate]	1.07
CN(N=O)C(=O)N[C@H]1C(O)O[C@H](CO)[C@@H](O)[C@@H]1O (mixture of isomers) [Streptozotocin]	0.779
CCCCCN(C)CCC(O)(P(=O)(O)O)P(=O)(O)O [Ibandronate sodium]	0.697
CN(CCCN1c2ccccc2CCc2ccccc21)CC(=O)c1ccc(Cl)cc1 [Lofepramine]	1.07
CN(C)CCC[C@@]1(c2ccc(F)cc2)OCc2cc(C#N)ccc21 [Escitalopram oxalate]	0.956
Cc1cnc(C(=O)NCCc2ccc(S(=O)(=O)NC(=O)NC3CCCCC3)cc2)cn1 [Glipizide]	1.02
Cc1ncc(CO)c(CO)c1O [Pyridoxine hydrochloride]	1.04
CC(=O)[C@H]1CC[C@H]2[C@@H]3C=CC4=CC(=O)CC[C@@]4(C)[C@@H]3CC[C@]12C [Dydrogesterone]	0.451
CO[C@H]1C[C@H](O[C@H]2[C@H](C)[C@@H](O[C@@H]3O[C@H](C)C[C@H](N(C)C)[C@H]3OC(C)=O)[C@@H](C)C[C@@]3(CO3)C(=O)[C@H](C)[C@@H](OC(C)=O)[C@@H](C)[C@@H](C)OC(=O)[C@@H]2C)O[C@@H](C)[C@@H]1OC(C)=O [Troleandomycin]	0.858
CCCCOc1ccc(CC(=O)NO)cc1 [Bufexamac]	0.442
Nc1ncn(C2OC(CO)C(O)C2O)c(=O)n1 (stereo not drawn) [Azacytidine-5]	0.618
COc1cc([C@@H]2c3cc4c(cc3[C@@H](O[C@@H]3O[C@@H]5CO[C@@H](C)O[C@H]5[C@H](O)[C@H]3O)[C@H]3COC(=O)[C@H]23)OCO4)cc(OC)c1O [Etoposide]	0.298
